Measured values from PubChem BioAssay AID1631 (National Center for Advancing Translational Sciences (NCATS), 2009).
Out of some 260,000 compounds screened, about 890 (0.34%) were called active. The shares of active, inactive and inconclusive entries below differ from those in the screen. Calls follow the shape of the dose curve; as a rule, active = well fitted activation curve with a large enough effect; inconclusive = small, poorly fitted or top-dose-only effect; inactive = no such curve, though single readings can be large or run the other way. Potencies of inconclusive entries are left out as doubtful fits.

Each molecule was assayed against Pyruvate kinase PKM (Homo sapiens) (UniProt P14618) (assay: qHTS Assay for Activators of Human Muscle isoform 2 Pyruvate Kinase). Conditions: purified PKM2, Kinase-Glo ATP luminescence; Potency: activation; activation: at 57.5 µM (top of the series), 0% is enzyme alone, no compound.
Procedure, shortened: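 Purified hPK-M2 (>95%) run at intermediate activity with 0.1 mM ADP and 0.5 mM PEP in 50 mM imidazole pH 7.2, KCl, MgCl2; 1 h room temperature. ATP formed read by Kinase-Glo luminescence; normalized to uninhibited and no-enzyme controls.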
% is scaled to controls: 0 for no effect and ±100 for the full control effect; potency is read from the fitted curve at half-maximal effect; tags tell the direction and shape of the fitted curve.
Also: nearly all actives have a fitted effect of over 55% in size.

Chain of UniProt P14618 (P14618 whole entry, looked up, canonical isoform): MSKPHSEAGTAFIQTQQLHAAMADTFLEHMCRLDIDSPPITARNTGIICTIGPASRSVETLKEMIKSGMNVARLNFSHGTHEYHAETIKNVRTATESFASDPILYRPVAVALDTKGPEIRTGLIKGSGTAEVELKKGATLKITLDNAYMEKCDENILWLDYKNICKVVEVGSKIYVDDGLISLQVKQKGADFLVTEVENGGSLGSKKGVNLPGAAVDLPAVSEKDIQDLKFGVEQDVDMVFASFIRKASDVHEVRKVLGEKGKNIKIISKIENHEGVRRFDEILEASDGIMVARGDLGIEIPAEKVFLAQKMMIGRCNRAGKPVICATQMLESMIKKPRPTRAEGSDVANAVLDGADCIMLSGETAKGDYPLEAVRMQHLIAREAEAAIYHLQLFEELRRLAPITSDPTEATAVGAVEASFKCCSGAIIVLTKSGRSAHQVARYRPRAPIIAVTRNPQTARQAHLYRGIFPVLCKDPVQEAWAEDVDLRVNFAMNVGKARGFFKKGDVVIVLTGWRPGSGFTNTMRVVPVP

SMILES	activation	Potency
NC(=S)N=Nc1c(O)n(CCCl)c2ccc(Br)cc12	inactive: -1.42%	
N#C/C(=C\c1ccc(O)cc1)c1nc2ccccc2o1	inactive: 0.298%	
N#CCCN1CCN(C(=S)c2ccc(-c3cccc(Cl)c3)o2)CC1		inconclusive [rising, single point]
CN(C)Cc1nc2ccccc2c(=O)n1Cc1nc(-c2cccc([N+](=O)[O-])c2)cs1		inconclusive [rising, single point]
COc1cccc(NC(=O)CSc2nnc(NC(=O)C3CCC3)s2)c1		inconclusive [rising, single point]
Cc1noc(C)c1COC(=O)c1ccc(S(=O)(=O)NCc2ccco2)cc1		inconclusive [rising, single point]
Cn1c(SCc2c(F)cccc2Cl)nc2c(c1=O)SCC2		inconclusive [rising, single point]
CCOc1cc(NC(=O)c2cccs2)c(OCC)cc1NC(=O)c1cccnc1		inconclusive [rising, single point]
c1ccc(-n2nnnc2SCc2cn3ccccc3n2)cc1		inconclusive [rising, single point]
O=C(c1ccccc1)n1ccn(-c2ccccc2)c1=S		inconclusive [rising, single point]
COc1ccc(CC(=O)N/N=C/c2cccn2-c2ccc([N+](=O)[O-])cc2)cc1OC		inconclusive [rising, partial curve]
COc1ccc(CNc2ncc(-c3ccccc3)n2C)c2ccccc12		inconclusive [rising, partial curve, poor fit]
O=C(NCCN1C(=O)S/C(=C\c2cccnc2)C1=O)c1cc(S(=O)(=O)N2CCOCC2)ccc1F		inconclusive [rising, partial curve]
C=CCSc1nnc2c(n1)[nH]c1c(C)cccc12		inconclusive [rising, single point]
OCCN1CCN(C(c2cccs2)c2ccc3cccnc3c2O)CC1 (centres undefined)	inactive: 17.4%	
COc1cc(C(=O)NCC(=O)OCc2cc(=O)oc3c(C)c(C)ccc23)cc(OC)c1OC		inconclusive [rising, full curve]
CCOc1ccc(N2C(=O)CC(SCc3nc4ccccc4[nH]3)C2=O)cc1 (centres undefined)	inactive: 21.2%	
COC(=O)c1sc2cnccc2c1N	inactive: 7.36%	
O=c1[nH]c2ccccc2n1C1=CCNCC1	inactive: 11.8%	
COC(=O)CNC(=O)C1(CC(C)C)C=CCN1C(C)=O (centres undefined)	inactive: 0.0932%	
Cc1cc(N)n(-c2ccc(S(=O)(=O)c3ccc(C(C)C)cc3)cc2)n1		inconclusive [rising, partial curve]
CC(=O)c1c(C)[nH]c(C(=O)Nc2ccc(C)c(S(=O)(=O)Nc3ccc(C)cc3C)c2)c1C		active: 17.8 µM
Cc1nc2ccc(S(=O)(=O)NCC(=O)N(C)Cc3ccco3)cc2s1		inconclusive [rising, partial curve]
COC(C(=O)NCc1ccc(C)cc1)c1ccccc1 (centres undefined)		inconclusive [rising, single point]
COc1ccccc1N1CCN(c2cc(=O)n(Cc3ccc(F)cc3)c(=O)[nH]2)CC1	inactive: 0.374%	

SMILES	activation	Potency
Cc1ccc(OCCn2c(CCCO)nc3ccccc32)cc1		inconclusive [rising, partial curve, poor fit]
Cc1ccccc1-c1cc2c(nn1)-c1ccccc1C2=O	inactive: -47%	
COCCN(C(=O)/C=C/c1cccc([N+](=O)[O-])c1)c1c(N)n(Cc2ccccc2)c(=O)[nH]c1=O		active: 3.16 µM
Cc1c(Br)cc(C(=O)NCc2ccco2)c(C)c1C		inconclusive [rising, partial curve]
O=C(O)COc1ccc(F)cc1Br		inconclusive [rising, single point]
O=C(CN1CCN(c2ccccn2)CC1)Nc1nc2ccccc2s1	inactive: 4.28%	
CC1=NN(Cc2c(C)nn(Cc3ccccc3)c2C)C(C)(C)C1	inactive: 12.7%	
Cc1ccc(CN2C(=O)N/C(=C\c3cccn3-c3cccc(C(=O)O)c3)C2=O)cc1		inconclusive [rising, single point]
O=C(Cn1cc2c(n1)CCCC2)NCc1ccccn1		inconclusive [rising, single point]
Cc1cc(C)c2nc(NNC(=O)c3cc(=O)c4ccccc4o3)sc2c1		inconclusive [rising, single point]
Cn1c(NCCO)nc2c(c1=O)C1(CCCCC1)Cc1ccccc1-2		inconclusive [rising, full curve, poor fit]
O=C(CCN1C(=O)/C(=C/c2cccs2)SC1=S)Nc1cccc(O)c1		active: 5.01 µM
O=C(CC1c2ccccc2Oc2ccccc21)N1CCN(c2ccccn2)CC1	inactive: -13.9%	
CCOC(=O)N1CCN(S(=O)(=O)c2ccc(C)cc2)C1c1ccccc1 (centres undefined)	inactive: -1.77%	
CCOc1cc(/C=N/O)ccc1OCc1ccccc1F		inconclusive [rising, single point]
O=C(CNC(=O)c1cc2c(n(-c3ccccc3)c1=O)CCCC2=O)c1ccccc1		inconclusive [rising, partial curve]
C/C(=N\NC(=O)c1ccc2c(c1)OCO2)c1ccco1	inactive: -36.9%	
CCOC(=O)C1=C(Cn2cnc3ccccc32)NC(=O)NC1c1cc(C)ccc1C (centres undefined)		inconclusive [rising, partial curve]
COc1cccc(CN(C)Cc2nc3cc(C(F)(F)F)ccc3c(=O)[nH]2)c1	inactive: 2.41%	
N#CC(C#N)=C1C=CC=CN1/C(=C\c1ccccc1Cl)C(=O)c1ccccc1		inconclusive [rising, partial curve]
Cc1cc([N+](=O)[O-])ccc1NC(=O)CN1C2CCC1CC(NC(=O)NC13CC4CC(CC(C4)C1)C3)C2 (centres undefined)	inactive: -10.5%	
COc1ccc(C2=C/C(=C\c3cccc(OC(C)=O)c3)C(=O)O2)cc1		inconclusive [rising, single point]
C=CCOc1c(Br)cc(/C=C(\C#N)C(N)=O)cc1OC		inconclusive [rising, single point]
CCCCCc1ccc(OCCOCCn2c[n+](C)c3ccccc32)c(CCCCC)c1	inactive: -0.542%	
Cc1cc(C)cc(NC(=O)CSc2nnc(-c3ccccc3)n2N)c1		inconclusive [rising, full curve, poor fit]

SMILES	activation	Potency
COc1cccc(NC(=O)NCc2ccccc2F)c1		inconclusive [rising, single point]
Cc1ccc(C(=O)/C=C/c2c[nH]c3ccccc23)cc1		inconclusive [rising, single point]
CCN(CC)S(=O)(=O)c1ccc(C)c(NC(=O)CN2CCN(C)CC2)c1		inconclusive [rising, single point]
O=C(COc1ccc2ccccc2c1)Nc1ccncc1	inactive: 3.27%	
COc1ccc(S(=O)(=O)N2CCc3cc(OC)c(OC)cc3C2)cc1		active: 7.94 µM
CN(C)CCC(=O)c1cccc(Br)c1	inactive: -1.09%	
O=C(OCc1nc2ccc(Cl)cc2n1CCO)c1ccc2c(c1)OCO2		inconclusive [rising, single point]
COc1cc([N+](=O)[O-])ccc1NC(=O)CSc1ccccn1		inconclusive [rising, single point]
Cc1ccc(C(=O)NCCNc2ncc(C(F)(F)F)cc2Cl)cc1[N+](=O)[O-]	inactive: 9.53%	
COc1ccccc1N/N=C1\COC(C)(C)CC1=O	inactive: 0.205%	
CCS(=O)(=O)N1CCC(C(=O)NCC2CCCO2)CC1 (centres undefined)		inconclusive [rising, single point]
Cc1ccccc1-n1c(C)cc(/C=N/Nc2ccc([N+](=O)[O-])cn2)c1C	inactive: -0.0192%	
CCc1nnc(NS(=O)(=O)c2ccc(NC(=S)NC(=O)/C=C/c3ccc(OC)cc3)cc2)s1		inconclusive [rising, partial curve]
CCOc1ccc(CC(=O)NNC(=S)NCCc2ccccc2)cc1		inconclusive [rising, single point]
Cc1c(NC(=O)C23CC4CC(CC(Br)(C4)C2)C3)c(=O)n(-c2ccccc2)n1C	inactive: 0.74%	
Cc1cc(C)nc(NNC2=CC(=[N+]3CCCC3)CCC2)n1		inconclusive [rising, partial curve]
Cn1cccc1CC(=O)N/N=C/C=C/c1ccco1		inconclusive [rising, partial curve]
Cc1cc(C(=O)N2CCCC(C(=O)c3cc(F)ccc3F)C2)c(C)o1 (centres undefined)		inconclusive [rising, single point]
CCN(CC)S(=O)(=O)c1ccc(S(=O)(=O)N(CC(=O)Nc2ccccc2)Cc2ccco2)cc1		inconclusive [rising, single point]
C/C=C/C=C\C(=O)Nc1cccc(C2=NOC3(C2)C[C@@H](C(N)=O)N(C(=O)c2cc([N+](=O)[O-])cc([N+](=O)[O-])c2C)C3)c1 (some centres undefined)		inconclusive [rising, single point]
Cn1c(=S)n(/N=C/c2cccs2)c2ccccc21	inactive: -2.51%	
CN(C)/C=N/c1c(C#N)cnn1-c1ncnc2sc(-c3ccccc3)cc12		inconclusive [rising, single point]
CCn1c(SCC(=O)N/N=C/C=C/c2ccco2)nc2ccccc21		inconclusive [rising, full curve]
CCS(=O)(=O)Nc1cccc(C2=NN(S(C)(=O)=O)C(c3ccccc3)C2)c1 (centres undefined)		inconclusive [rising, partial curve, poor fit]
